Data on 2 molecules can be found in paper PMC10424213.

Protein sequences, listed by entry. Tags and fused reporters are not part of them. Residues count along the entry.
UniProt P03661, residues 19-424: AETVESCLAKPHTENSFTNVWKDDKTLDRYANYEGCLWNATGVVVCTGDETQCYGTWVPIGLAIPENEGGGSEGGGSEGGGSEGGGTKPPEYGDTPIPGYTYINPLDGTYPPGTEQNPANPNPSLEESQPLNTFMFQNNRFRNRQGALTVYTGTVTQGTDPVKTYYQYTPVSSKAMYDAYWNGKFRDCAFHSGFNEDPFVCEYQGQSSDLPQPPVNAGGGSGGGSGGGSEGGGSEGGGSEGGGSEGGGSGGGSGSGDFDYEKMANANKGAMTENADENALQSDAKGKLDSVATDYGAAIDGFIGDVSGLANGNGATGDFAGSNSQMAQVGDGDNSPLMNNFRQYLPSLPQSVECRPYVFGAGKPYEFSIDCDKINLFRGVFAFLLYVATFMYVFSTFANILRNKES

In assay [1] the target is pIII fused to the adenylate cyclase T18 domain, produced in E. coli W3110 (fd phage) (UniProt P03661). Kind of assay: pull-down.
Assay [2] deals with native pIII protein, full length, produced in E. coli W3110 (fd phage) (UniProt P03661). The experiment in a line: co-IP.

No constants are given. Whether binding was seen depends on the method and setting. In cells and extracts the contact can be indirect. Some entries that bind do so weakly or less than the wild type. For some assays here: Tags and fused reporters may be left off the sequences shown.

B1: TolQ with a C-terminal hemagglutinin (HA) tag (protein, UniProt P0ABU9 1-230)
chain: MTDMNILDLFLKASLLVKLIMLILIGFSIASWAIIIQRTRILNAAAREAEAFEDKFWSGIELSRLYQESQGKRDNLTGSEQIFYSGFKEFVRLHRANSHAPEAVVEGASRAMRISMNRELENLETHIPFLGTVGSISPYIGLFGTVWGIMHAFIALGAVKQATLQMVAPGIAEALIATAIGLFAAIPAVMAYNRLNQRVNKLELNYDNFMEEFTAILHRQAFTVSESNKG
As for B1, the binding entry in assay [1] is given as “binds”.

B2: TolR overproduced from a vector (protein, UniProt P0ABV6 1-142)
chain: MARARGRGRRDLKSEINIVPLLDVLLVLLLIFMATAPIITQSVEVDLPDATESQAVSSNDNPPVIVEVSGIGQYTVVVEKDRLERLPPEQVVAEVSSRFKANPKTVFLIGGAKDVPYDEIIKALNLLHSAGVKSVGLMTQPI
As to B2, the binding result in assay [2] is “binds”.
